Data: the supplement of paper PMC8728848
The list shows a part of the results.

What was measured:
Experiment in all cases: glycan array binding signal (z-score within array); higher = stronger binding
Settings in all cases: glycan notation: IUPAC condensed, linker removed
[1] = target: Gal(b1-3)GlcNAc(b1-6)[Gal(b1-3)]GalNAc
Procedure, shortened: (§1)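 The binding signal is a Z-score computed within each array. Data were drawn from 3228 arrays in the Consortium for Functional Glycomics database, restricted to those with a known protein sequence. Scores were averaged over arrays of the same protein sequence at different concentrations or buffers, and over linkers, and negative values can be taken as non-binding.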

[2] = target: Gal(b1-3)GlcNAc6S
Procedure, shortened: as §1

[3] = target: Gal(b1-3)[Fuc(a1-4)]GlcNAc
Procedure, shortened: as §1

[4] = target: Gal(b1-3)[Fuc(a1-4)]GlcNAc(b1-2)Man
Procedure, shortened: as §1

[5] = target: Gal(b1-3)[Fuc(a1-4)]GlcNAc(b1-2)Man(a1-3)[Gal(b1-3)[Fuc(a1-4)]GlcNAc(b1-2)Man(a1-6)]Man(b1-4)GlcNAc(b1-4)[Fuc(a1-6)]GlcNAc
Procedure, shortened: as §1

[6] = target: Gal(b1-3)[Fuc(a1-4)]GlcNAc(b1-3)Gal(b1-3)[Fuc(a1-4)]GlcNAc
Procedure, shortened: as §1

[7] = target: Gal(b1-3)[Fuc(a1-4)]GlcNAc(b1-3)Gal(b1-4)[Fuc(a1-3)]GlcNAc
Procedure, shortened: as §1

[8] = target: Gal(b1-3)[Fuc(a1-4)]GlcNAc(b1-6)GalNAc
Procedure, shortened: as §1

[9] = target: Gal(b1-3)[GlcNAc(b1-6)]GalNAc
Procedure, shortened: as §1

[10] = target: Gal(b1-3)[Neu5Ac(a2-6)]GalNAc
Procedure, shortened: as §1

[11] = target: Gal(b1-3)[Neu5Ac(a2-6)]GlcNAc(b1-4)Gal(b1-4)Glc
Procedure, shortened: as §1

[12] = target: Gal(b1-3)[Neu5Ac(b2-6)]GalNAc
Procedure, shortened: as §1

[13] = target: Gal(b1-4)Gal
Procedure, shortened: as §1

[14] = target: Gal(b1-4)GalNAc(a1-3)[Fuc(a1-2)]Gal(b1-4)GlcNAc
Procedure, shortened: as §1

[15] = target: Gal(b1-4)GalNAc(b1-3)[Fuc(a1-2)]Gal(b1-4)GlcNAc
Procedure, shortened: as §1

[16] = target: Gal(b1-4)Glc
Procedure, shortened: as §1

[17] = target: Gal(b1-4)Glc6S
Procedure, shortened: as §1

[18] = target: Gal(b1-4)GlcNAc
Procedure, shortened: as §1

[19] = target: Gal(b1-4)GlcNAc(a1-6)Gal(b1-4)GlcNAc
Procedure, shortened: as §1

[20] = target: Gal(b1-4)GlcNAc(b1-2)Man
Procedure, shortened: as §1

[21] = target: Gal(b1-4)GlcNAc(b1-2)Man(a1-3)Man(b1-4)GlcNAc(b1-4)GlcNAc
Procedure, shortened: as §1

[22] = target: Gal(b1-4)GlcNAc(b1-2)Man(a1-3)[Gal(b1-4)GlcNAc(b1-2)Man(a1-6)]Man(b1-4)GlcNAc(b1-4)GlcNAc
Procedure, shortened: as §1

[23] = target: Gal(b1-4)GlcNAc(b1-2)Man(a1-3)[Gal(b1-4)GlcNAc(b1-2)Man(a1-6)]Man(b1-4)GlcNAc(b1-4)[Fuc(a1-6)]GlcNAc
Procedure, shortened: as §1

[24] = target: Gal(b1-4)GlcNAc(b1-2)Man(a1-3)[Gal(b1-4)GlcNAc(b1-2)Man(a1-6)][Gal(b1-4)GlcNAc(b1-4)]Man(b1-4)GlcNAc(b1-4)[Fuc(a1-6)]GlcNAc
Procedure, shortened: as §1

[25] = target: Gal(b1-4)GlcNAc(b1-2)Man(a1-3)[Gal(b1-4)GlcNAc(b1-2)Man(a1-6)][GlcNAc(b1-4)]Man(b1-4)GlcNAc(b1-4)[Fuc(a1-6)]GlcNAc
Procedure, shortened: as §1

[26] = target: Gal(b1-4)GlcNAc(b1-2)Man(a1-3)[GlcNAc(b1-2)Man(a1-6)]Man(b1-4)GlcNAc(b1-4)GlcNAc
Procedure, shortened: as §1

[27] = target: Gal(b1-4)GlcNAc(b1-2)Man(a1-3)[GlcNAc(b1-4)][Gal(b1-4)GlcNAc(b1-2)Man(a1-6)]Man(b1-4)GlcNAc(b1-4)GlcNAc
Procedure, shortened: as §1

[28] = target: Gal(b1-4)GlcNAc(b1-2)Man(a1-3)[Man(a1-6)]Man(b1-4)GlcNAc(b1-4)GlcNAc
Procedure, shortened: as §1

[29] = target: Gal(b1-4)GlcNAc(b1-2)Man(a1-6)Man(b1-4)GlcNAc(b1-4)GlcNAc
Procedure, shortened: as §1

[30] = target: Gal(b1-4)GlcNAc(b1-2)Man(a1-6)[GlcNAc(b1-2)Man(a1-3)]Man(b1-4)GlcNAc(b1-4)GlcNAc
Procedure, shortened: as §1

[31] = target: Gal(b1-4)GlcNAc(b1-2)Man(a1-6)[Man(a1-3)]Man(b1-4)GlcNAc(b1-4)GlcNAc
Procedure, shortened: as §1

[32] = target: Gal(b1-4)GlcNAc(b1-2)[Gal(b1-4)GlcNAc(b1-4)]Man(a1-3)[Gal(b1-4)GlcNAc(b1-2)Man(a1-6)]Man(b1-4)GlcNAc(b1-4)GlcNAc
Procedure, shortened: as §1

[33] = target: Gal(b1-4)GlcNAc(b1-2)[Gal(b1-4)GlcNAc(b1-4)]Man(a1-3)[Gal(b1-4)GlcNAc(b1-2)[Gal(b1-4)GlcNAc(b1-6)]Man(a1-6)]Man(b1-4)GlcNAc(b1-4)GlcNAc
Procedure, shortened: as §1

[34] = target: Gal(b1-4)GlcNAc(b1-2)[Gal(b1-4)GlcNAc(b1-4)]Man(a1-3)[GlcNAc(b1-4)][Gal(b1-4)GlcNAc(b1-2)Man(a1-6)]Man(b1-4)GlcNAc(b1-4)GlcNAc
Procedure, shortened: as §1

[35] = target: Gal(b1-4)GlcNAc(b1-2)[Gal(b1-4)GlcNAc(b1-4)]Man(a1-3)[GlcNAc(b1-4)][Gal(b1-4)GlcNAc(b1-2)[Gal(b1-4)GlcNAc(b1-6)]Man(a1-6)]Man(b1-4)GlcNAc(b1-4)GlcNAc
Procedure, shortened: as §1

[36] = target: Gal(b1-4)GlcNAc(b1-2)[Gal(b1-4)GlcNAc(b1-6)]Man(a1-6)[Gal(b1-4)GlcNAc(b1-2)Man(a1-3)]Man(b1-4)GlcNAc(b1-4)GlcNAc
Procedure, shortened: as §1

[37] = target: Gal(b1-4)GlcNAc(b1-2)[Gal(b1-4)GlcNAc(b1-6)]Man(a1-6)[Gal(b1-4)GlcNAc(b1-2)Man(a1-3)]Man(b1-4)GlcNAc(b1-4)[Fuc(a1-6)]GlcNAc
Procedure, shortened: as §1

B1: GS7807E-bfa-538-23-538 (Bacteroides fragilis) (protein)
chain: TDSFESFNTNEAGFDNDSKKQDFNYYGIPLGIIQQGIYFNYDWGSGKNWPFQTMQNLGADLFSGYVHDFNPFNEGKNNSTYYMMDGWNGSTWDNTYGYIMPEVQKSETINEKDNIGFFGITKILKVELMHRLSDLYGPIVYTQFGSKTGSTPDTQQEAYKAFFNDLDTGIAKIREYQKANPDIESFAKFDILMPQGKRTFSEWIRFANSLRLRLAVRIAMADSKLAVAEAQKALTDEEGLLEGNDEVVAVSTSSGYTNPFGEINKAWGEVFMNANMESLLVGYEDPRMEKYFDKATGSDATSLIDYKGTYKGIRQGTGFSHKNYNGHSKSTITQQTDAVLMTPAEVWFLRAEAALRGWSSESVKDCYEKGVKASFAQWGAAGAEAYLESDRKPSDYVDAFKAANNVKAVNTLTPKWDDAAGNEDKLGRIITQKWLAMFPEGGEAWAEQRRTGYPRLFPVLVNQSEGTVDTNLGPRRLNFFVGIKTTNPEQYTQLVNALGGIDNCGTRLWWDTGRNF
glycan array binding signal (z-score) [1]: 0.289 | glycan array binding signal (z-score) [2]: 1.53 | glycan array binding signal (z-score) [3]: -0.535 | glycan array binding signal (z-score) [4]: -0.017 | glycan array binding signal (z-score) [5]: -0.251 | glycan array binding signal (z-score) [6]: -0.567 | glycan array binding signal (z-score) [7]: -0.561 | glycan array binding signal (z-score) [8]: 2.33 | glycan array binding signal (z-score) [9]: -0.001 | glycan array binding signal (z-score) [10]: -0.403 | glycan array binding signal (z-score) [11]: -0.144 | glycan array binding signal (z-score) [12]: -0.551 | glycan array binding signal (z-score) [13]: -0.624 | glycan array binding signal (z-score) [14]: -0.239 | glycan array binding signal (z-score) [15]: -0.41 | glycan array binding signal (z-score) [16]: -0.011 | glycan array binding signal (z-score) [17]: 0.734 | glycan array binding signal (z-score) [18]: -0.208 | glycan array binding signal (z-score) [19]: -0.268 | glycan array binding signal (z-score) [20]: -0.486 | glycan array binding signal (z-score) [21]: 0.489 | glycan array binding signal (z-score) [22]: 0.153 | glycan array binding signal (z-score) [23]: 2.42 | glycan array binding signal (z-score) [24]: 2.37 | glycan array binding signal (z-score) [25]: 0.506 | glycan array binding signal (z-score) [26]: -0.651 | glycan array binding signal (z-score) [27]: 0.282 | glycan array binding signal (z-score) [28]: 0.193 | glycan array binding signal (z-score) [29]: 2.4 | glycan array binding signal (z-score) [30]: 2.11 | glycan array binding signal (z-score) [31]: -0.079 | glycan array binding signal (z-score) [32]: 3.32 | glycan array binding signal (z-score) [33]: -0.328 | glycan array binding signal (z-score) [34]: 0.844 | glycan array binding signal (z-score) [35]: 0.622 | glycan array binding signal (z-score) [36]: 1.14 | glycan array binding signal (z-score) [37]: 0.713
